Sequences with one replicate were seen in a single cluster, so their values are uncertain.
The sequences below were run on ATP (assay: switch fluorescence ratio, 500 uM ATP over buffer (Cy3 cluster intensity, sum of 5 cycles each) (fold (ratio)); higher = stronger signal-on switching upon ATP binding; sequences stand for … in TCGTCGGCAGCGTCAGATGTGTATAAGAGACAGTTTTTTTTTTTTTTTTTTTTTTTTT…TC). Details: aptamer strand: ATP DNA aptamer (quencher-CACCTGGGGGAGTATTGCGGAGGAAGG + anchor), 100 nM annealed; ATP concentration: 500 uM; one replicate.
Procedure, shortened: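 Cy3-labelled switching-strand clusters on a modified Illumina MiSeq flow-cell were annealed to 100 nM quencher-labelled ATP aptamer, imaged in selection buffer, then imaged after 15 min with 500 uM ATP at 22 °C. Five buffer/ATP cycles ran, with NaOH stripping and re-annealing between them. The fluorescence ratio is summed target-cycle over summed buffer-cycle Cy3 intensity per cluster, averaged per switch-domain sequence. Clusters outside 100-1000 RFU were excluded.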
Sequence CATGCAGTCC has a switch fluorescence ratio of 1.01.
With CATGCCTGGG the switch fluorescence ratio was 0.973.
CATGCGACCG was tested, and the switch fluorescence ratio was 0.984.
CATGCGACTT showed a switch fluorescence ratio of 1.02.
For CATGCGGACA, the switch fluorescence ratio was 1.03.
Work on CATGCGTTAC yielded a switch fluorescence ratio of 3.65.
For CATGCTCGGG, the switch fluorescence ratio was 1.03.
CATGCTCGGT gave a switch fluorescence ratio of 0.996.
Sequence CATGCTTGCG has a switch fluorescence ratio of 0.975.
Sequence CATGGACCAC has a switch fluorescence ratio of 1.01.
CATGGAGCTA showed a switch fluorescence ratio of 1.12.
Sequence CATGGCCCGG has a switch fluorescence ratio of 0.939.
For CATGGGACCA, the switch fluorescence ratio was 1.02.
CATGGGGCCA was tested, and the switch fluorescence ratio was 0.951.
In the case of CATGGGTATG, the switch fluorescence ratio is reported as 0.958.
CATGGTGTCG showed a switch fluorescence ratio of 1.06.
For CATGGTTCTT, the switch fluorescence ratio was 1.
With CATGTCATTT the switch fluorescence ratio was 0.965.
CATGTCCAGT was tested, and the switch fluorescence ratio was 1.
CATGTCGGAT gave a switch fluorescence ratio of 0.957.
CATGTCGGCG was tested, and the switch fluorescence ratio was 1.02.
For CATGTCTAAA, the switch fluorescence ratio was 0.953.
In the case of CATGTGACAG, the switch fluorescence ratio is reported as 1.
With CATGTTCACT the switch fluorescence ratio was 1.01.
In the case of CATGTTCGGC, the switch fluorescence ratio is reported as 1.
CATGTTTTAT gave a switch fluorescence ratio of 1.06.
CATTAAGACT was tested, and the switch fluorescence ratio was 0.99.
In the case of CATTAATCGG, the switch fluorescence ratio is reported as 1.01.
CATTACCAAG was tested, and the switch fluorescence ratio was 1.02.
For CATTACGTCG, the switch fluorescence ratio was 0.944.
In the case of CATTAGACAG, the switch fluorescence ratio is reported as 0.976.
Sequence CATTAGACTC has a switch fluorescence ratio of 0.993.
In the case of CATTAGGTAC, the switch fluorescence ratio is reported as 1.03.
CATTATCTCA showed a switch fluorescence ratio of 0.961.
CATTATTCCG gave a switch fluorescence ratio of 0.956.
CATTATTGTG gave a switch fluorescence ratio of 0.945.
For CATTCACACC, the switch fluorescence ratio was 1.11.
In the case of CATTCCCTGC, the switch fluorescence ratio is reported as 1.25.
With CATTCCTCAC the switch fluorescence ratio was 2.53.
For CATTCTGCTG, the switch fluorescence ratio was 1.01.
For CATTGAACCT, the switch fluorescence ratio was 1.9.
Sequence CATTGAACTA has a switch fluorescence ratio of 0.973.
In the case of CATTGAGCCG, the switch fluorescence ratio is reported as 0.986.
In the case of CATTGAGGTG, the switch fluorescence ratio is reported as 0.998.
With CATTGCTCGC the switch fluorescence ratio was 1.07.
Work on CATTGCTTGA yielded a switch fluorescence ratio of 0.964.
Sequence CATTGGGCAC has a switch fluorescence ratio of 1.
In the case of CATTGTAAG, the switch fluorescence ratio is reported as 1.02.
Sequence CATTTAAAA has a switch fluorescence ratio of 0.975.
Sequence CATTTAATCT has a switch fluorescence ratio of 1.01.
With CATTTAATGC the switch fluorescence ratio was 1.73.
For CATTTCACAC, the switch fluorescence ratio was 1.01.
CATTTCGCAA was tested, and the switch fluorescence ratio was 1.06.
In the case of CATTTGCCTG, the switch fluorescence ratio is reported as 1.04.
Work on CATTTGCTGG yielded a switch fluorescence ratio of 1.34.
CATTTGGTTG showed a switch fluorescence ratio of 0.959.
In the case of CCAAAAAAT, the switch fluorescence ratio is reported as 1.01.
With CCAAAAACGG the switch fluorescence ratio was 1.06.
Work on CCAAACTCTT yielded a switch fluorescence ratio of 1.03.
In the case of CCAAAGATTC, the switch fluorescence ratio is reported as 1.11.
CCAAAGATTT showed a switch fluorescence ratio of 0.987.
CCAAAGTTAT showed a switch fluorescence ratio of 1.09.
In the case of CCAAATACT, the switch fluorescence ratio is reported as 2.18.
In the case of CCAAATGATC, the switch fluorescence ratio is reported as 1.03.
With CCAACAGGAT the switch fluorescence ratio was 1.02.
CCAACCGTCG gave a switch fluorescence ratio of 1.
For CCAACGTCGT, the switch fluorescence ratio was 1.07.
CCAAGACCGC gave a switch fluorescence ratio of 1.41.
In the case of CCAAGAGACG, the switch fluorescence ratio is reported as 0.977.
CCAAGGCCGG was tested, and the switch fluorescence ratio was 1.
CCAAGTCTTT was tested, and the switch fluorescence ratio was 1.02.
Sequence CCAATAAAT has a switch fluorescence ratio of 0.961.
CCAATACCTT showed a switch fluorescence ratio of 1.29.
Work on CCAATAGTTG yielded a switch fluorescence ratio of 1.
With CCAATGACAC the switch fluorescence ratio was 1.24.
Sequence CCAATGGACG has a switch fluorescence ratio of 0.965.
CCACAATATA was tested, and the switch fluorescence ratio was 1.78.
With CCACACGTGC the switch fluorescence ratio was 1.25.
For CCACAGGGAG, the switch fluorescence ratio was 1.28.
CCACAGGTTA gave a switch fluorescence ratio of 1.6.
CCACATTCCG gave a switch fluorescence ratio of 1.1.
Sequence CCACATTGGT has a switch fluorescence ratio of 1.02.
Work on CCACATTTAA yielded a switch fluorescence ratio of 1.
CCACCAGAGT showed a switch fluorescence ratio of 2.24.
In the case of CCACCGGTGG, the switch fluorescence ratio is reported as 1.04.
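Further: ATP exposure 15 min at 22 °C before imaging.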
